Type in all cases: cell-based, human
One assay has as its system AHA1 mRNA in MCF-7 cells. The assay can be described thus: AHA1 mRNA knockdown by DIG-labeled siRNA-lipid nanoparticles (bDNA). The note with it: no siRNA, only antibody (3.24 nM), 12 h. The method, then: (iii) Complexation of DIG-labeled siRNA-lipid nanoparticles with <Target-DIG> bispecific antibodies. DIG-labeled siRNA-lipid nanoparticles containing 1 pmol of AHA1-, DIG-coupled AHA1-, or luciferase (LUC)-siRNAs were incubated with 3.24 pmol of bispecific antibodies directed against either the tumor-associated LewisY oligosaccharide and DIG <LeY-DIG> or against the sialic acid-binding transmembrane protein, CD22, and DIG <CD22-DIG> or with Dulbecco's Phosphate Buffered Saline (D-PBS) (Invitrogen, Carlsbad, Calif.) in a final volume of 200 μl Opti-MEM® vitrogen GmbH, Darmstadt, Germany) at RT for 30 min.
(iv) Evaluation of targeting- and mRNA silencing properties of DIG-labeled siRNA-lipid nanoparticles in combination with <Target-DIG> bispecific antibodies in vitro; MCF-7 cells were seeded on a 96-well plate with a density of 15,000 cells/well in 80 μl medium (RPMI 1640 Medium, 10% fetal calf serum, 100 U/ml penicillin/streptomycin; Biochrom AG, Berlin, Germany) and incubated overnight in a cell incubator (37° C., 95% H2O, 5% CO2). […] After incubation, cells were lysed and AHA1- and GAPDH-mRNA concentrations were quantified using a commercially available bDNA-quantification system (Affymetrix Inc., Fremont, Calif.). […]

The subject of a further assay is LeY positive MCF7 cells. The assay can be described thus: FACS analysis of DIG-eGFP delivery and internalization. The conditions noted are these: 3.43 nM antibody. On the procedure: For these analyses we used LeY positive MCF7 cells and the bispecific <LeY>-<DIG> antibody. 3×10^5 cells were seeded per well of a 96-well-plate and used immediately. 3.43 nM of the <LeY>-<DIG> bispecific antibody in FACS buffer (PBS containing 5% FCS) was added to the wells. A <DIG> antibody at the same concentration was used as a non-targeting control. For detection of bound antibodies, a secondary Cy5 labeled antibody (Jackson Immunoresearch 709-176-1490; Cy5 F(ab′)2 Donkey anti-human IgG (H+L)) was added to a final concentration of 3.43 nM. After washing in FACS buffer the cells were incubated for one hour at 4° C. and then analyzed with the FACS canto II (BD Biosciences). To show <LeY>-<DIG> bispecific antibody mediated eGFP delivery to cells, 3.43 nM of the <LeY>-<DIG> bispecific antibody in FACS buffer (PBS containing 5% FCS) pre-incubated with a twofold molar amount of both [1:2] and [1:3] DIG-eGFP were added to the wells. After washing in FACS buffer the cells were analyzed with the FACS canto II (BD Biosciences).
To analyze the ability of DIG-eGFP to monitor internalization, we performed FACS experiments. For these analyses we used LeY positive MCF7 cells and the bispecific <LeY>-<DIG> antibody. 3×10^5 cells were seeded per well of a 96-well-plate and used immediately. […] The cells were then analyzed with the FACS canto II (BD Biosciences).
In general terms: A flow cytometer gives signals particle by particle.

For assay [1], the system named is Aha1 mRNA in LeY positive MCF7 cells. The experiment in a line: bDNA assay of bispecific / DIG-siRNA / CPP-PolyArg complexes. The conditions noted are these: MCF7, 3 h plus 21 hours. The method, then:
To analyze these complexes for their ability to specifically induce mRNA silencing in target cells, we compared targeted siRNA transfection of complexes that contained either a <LeY>-<DIG> and a <CD22>-<DIG> bispecific antibody, which were charged with a DIG labeled siRNA targeting either Aha1 or as a control luciferase. These complexes were formed by pre-incubation Dig-siRNA with <Dig> bispecific at room temperature for 30 minutes, followed by addition of the CPP-PolyArg (siRNA binding) entity to generate the full transfection competent complex. The entire complex was incubated for further 30 minutes at room temperature before adding to LeY positive MCF7 cells for a duration of three hours in Optimem medium. After subsequent incubation in growth medium for another 21 hours, the cells were lysed, and their mRNA content was analyzed using a bDNA assay.

B1: LeY-DIG: bispecific LeY-DIG antibody, <LeY> sequence derived from monoclonal antibody B3; SEQ. ID NO. 57 and 58 (antibody)
heavy: DVKLVESGGGLVQPGGSLKLSCATSGFTFSDYYMYWVRQTPEKRLEWVAYISNDDSSAAYSDTVKGRFTISRDNARNTLYLQMSRLKSEDTAIYYCARGLAWGAWFAYWGQGTLVTVSS[human IgG1 constant region not shown]GGGGSGGGGSQVQLVESGGGLVKPGGSLRLSCAASGFTFSDYAMSWIRQAPGKCLEWVSSINIGATYIYYADSVKGRFTISRDNAKNSLYLQMNSLRAEDTAVYYCARPGSPYEYDKAYYSMAYWGQGTTVTVSSGGGGSGGGGSGGGGSDIQMTQSPSSLSASVGDRVTITCRASQDIKNYLNWYQQKPGKAPKLLIYYSSTLLSGVPSRFSGSGSGTDFTLTISSLQPEDFATYYCQQSITLPPTFGCGTKVEIK
light: DVLMTQSPLSLPVSLGDQASISCRSSQIIVHSNGNTYLEWYLQKPGQSPKLLIYKVSNRFSGVPDRFSGSGSGTDFTLKISRVEAEDLGVYYCFQGSHVPFTFGSGTKLEIKRTVAAPSVFIFPPSDEQLKSGTASVVCLLNNFYPREAKVQWKVDNALQSGNSQESVTEQDSKDSTYSLSSTLTLSKADYEKHKVYACEVTHQGLSSPVTKSFNRGEC
modifications: humanized <LeY><DIG> heavy chain; humanized <LeY> light chain
Turning to B1, in the assay on AHA1 mRNA in MCF-7 cells, the “relative AHA1-mRNA concentration” value worked out at 94.6%. Further, the “binding / eGFP delivery to MCF7 cells (FACS)” value with LeY positive MCF7 cells is “clear binding to the LeY expressing MCF7 cells”. Moreover, the “Aha1 mRNA silencing” value in assay [1] is given as “Reduction of Ahal mRNA was observed”.

The values above are taken from patent US9574016B2, “Complex of bi-specific antibody and digoxigenin conjugated to a therapeutic or diagnostic agent” (Hoffmann-La Roche Inc., priority 2009, dated 2017).
